Data reported in PubChem BioAssay AID686978 (National Center for Advancing Translational Sciences (NCATS), 2013).
Hit rate of the full screen: of about 420,000 compounds, about 64,000 (15%) were called active. Inconclusive results, whose numbers are uncertain, are shown with a selection of clear calls. Calls come from the whole dose curve; as a rule, active = well fitted inhibition curve with a large enough effect; inconclusive = small, poorly fitted or top-dose-only effect; inactive = flat fitted curve, though single readings scatter. No potency is given beside an inconclusive call; the fits are too rough.

Assay: qHTS for Inhibitors of human tyrosyl-DNA phosphodiesterase 1 (TDP1): qHTS in cells in absence of CPT; note: nearly all actives have a fitted effect of over 55% in size
Conditions: DT40 Tdp1-/- hTDP1 cells, no CPT, ATP luminescence, 48 h; activity change, negative = growth inhibition: at 46.2 µM (top of the series) unless noted
How it was run: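 Cells were dispensed at 400 per well, compounds added by pin tool, plates incubated ≥48 hr at 37 °C, then CellTiter-Glo added for 30 min at room temperature before luminescence reading. Line: DT40 Tdp1-/- complemented with hTDP1; camptothecin omitted.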
% is set by controls: 0 for no effect and ±100 for the full control effect; potency is the fitted concentration of half-maximal effect; tags give direction and shape of the fitted curve.

Row | SMILES | Potency | activity change, negative = growth inhibition
1 | COc1ccccc1N(CC(=O)NC1CCCC1)C(=O)c1csnn1 | inconclusive [inhibitor, single point] | –
2 | Cc1ccc(NC(=O)c2oc3ccc(S(=O)(=O)N4CCCCCC4)cc3c2C)cc1Cl | – | inactive: -6.89%
3 | CC(=O)c1c(CC(=O)O)[nH]n(-c2nc3ccccc3s2)c1=O | inconclusive [inhibitor, partial curve] | –
4 | F[B-](F)(F)COCc1ccccc1Br | – | inactive: -0.74%
5 | O=C(NC1CCCCC1)C(c1ccccn1)N(C(=O)Cc1cccs1)c1ccc(Cl)cc1 (stereo not given) | inconclusive [inhibitor, partial curve] | –
6 | Cc1noc(C)c1COc1cccc(C(=O)N2CCN(C/C=C/c3ccccc3)CC2)c1 | inconclusive [inhibitor, single point] | –
7 | Fc1ccc(-c2nc3nc4ccccc4nc3n2Cc2ccco2)cc1 | inconclusive [inhibitor, partial curve] | –
8 | O=C(Nc1ccc(N2CCCC2)cc1)c1cc2ccccc2o1 | inconclusive [inhibitor, single point] | –
9 | CN(C)c1ccc(C(c2ccc(N(C)C)cc2)c2ccc([N+](=O)[O-])cc2)cc1 | inconclusive [inhibitor, partial curve] | –
10 | Cc1ccccc1OCC(=O)N/N=C/c1cccc(Oc2ccc([N+](=O)[O-])cc2[N+](=O)[O-])c1 | active: 20.6 µM | –
11 | CCCn1c(SC(C)C(=O)NC2CCCC(C)C2C)n[nH]c1=O (stereo not given) | inconclusive [inhibitor, full curve, poor fit] | –
12 | CN(C(=O)c1ccc(NC(=O)Cc2ccc(NC(=O)C3CCN(C(=O)C4CC4)CC3)cc2)cc1)C1CCCC1 | – | inactive: -20.3%
13 | C[C@H](NC(N)=O)C(=O)OCC(=O)Nc1ccc(OC(F)F)cc1 | – | inactive: 2.23%
14 | COC(=O)C(CC(=O)c1ccc(Br)cc1)n1ccnc1 (stereo not given) | active: 1.26 µM | –
15 | COc1ccccc1OCCn1c(NC(=O)c2ccc(Cl)cc2)nc2ccccc21 | – | inactive: -4.87%
16 | CC(OC(=O)c1cccc(-n2cnnn2)c1)c1nc2ccccc2c(=O)[nH]1 (stereo not given) | – | inactive: -3.12%
17 | CC(C)(C)NCc1cc(Br)ccc1OCc1cccs1 | inconclusive [inhibitor, single point] | –
18 | CN(Cc1ccco1)C(=O)C1CCCN(c2ncnc3c2nc2n3CCCCC2)C1 (stereo not given) | inconclusive [inhibitor, single point] | –
19 | CCOc1ccc2nc(NC(=O)CS(=O)(=O)c3ccccc3)sc2c1 | inconclusive [inhibitor, single point] | –
20 | CCc1ccc(NC(=O)C2CCC(CNS(=O)(=O)c3ccc4c(c3)CC(C)N4C(C)=O)CC2)cc1 (stereo not given) | active: 7.31 µM | –
